In all, about 310,000 compounds went through this assay and about 2,200 (0.71%) showed an effect of 50% or more. The effect is printed as a negative number. This is one part of the list.
Each molecule was assayed against human ether-à-go-go-related gene (hERG) potassium channel (human, UniProt Q12809) (assay: primary screen, population patch clamp on CHO cells stably expressing hERG).
Sequence of human ether-à-go-go-related gene (hERG) potassium channel (Q12809 whole entry, looked up): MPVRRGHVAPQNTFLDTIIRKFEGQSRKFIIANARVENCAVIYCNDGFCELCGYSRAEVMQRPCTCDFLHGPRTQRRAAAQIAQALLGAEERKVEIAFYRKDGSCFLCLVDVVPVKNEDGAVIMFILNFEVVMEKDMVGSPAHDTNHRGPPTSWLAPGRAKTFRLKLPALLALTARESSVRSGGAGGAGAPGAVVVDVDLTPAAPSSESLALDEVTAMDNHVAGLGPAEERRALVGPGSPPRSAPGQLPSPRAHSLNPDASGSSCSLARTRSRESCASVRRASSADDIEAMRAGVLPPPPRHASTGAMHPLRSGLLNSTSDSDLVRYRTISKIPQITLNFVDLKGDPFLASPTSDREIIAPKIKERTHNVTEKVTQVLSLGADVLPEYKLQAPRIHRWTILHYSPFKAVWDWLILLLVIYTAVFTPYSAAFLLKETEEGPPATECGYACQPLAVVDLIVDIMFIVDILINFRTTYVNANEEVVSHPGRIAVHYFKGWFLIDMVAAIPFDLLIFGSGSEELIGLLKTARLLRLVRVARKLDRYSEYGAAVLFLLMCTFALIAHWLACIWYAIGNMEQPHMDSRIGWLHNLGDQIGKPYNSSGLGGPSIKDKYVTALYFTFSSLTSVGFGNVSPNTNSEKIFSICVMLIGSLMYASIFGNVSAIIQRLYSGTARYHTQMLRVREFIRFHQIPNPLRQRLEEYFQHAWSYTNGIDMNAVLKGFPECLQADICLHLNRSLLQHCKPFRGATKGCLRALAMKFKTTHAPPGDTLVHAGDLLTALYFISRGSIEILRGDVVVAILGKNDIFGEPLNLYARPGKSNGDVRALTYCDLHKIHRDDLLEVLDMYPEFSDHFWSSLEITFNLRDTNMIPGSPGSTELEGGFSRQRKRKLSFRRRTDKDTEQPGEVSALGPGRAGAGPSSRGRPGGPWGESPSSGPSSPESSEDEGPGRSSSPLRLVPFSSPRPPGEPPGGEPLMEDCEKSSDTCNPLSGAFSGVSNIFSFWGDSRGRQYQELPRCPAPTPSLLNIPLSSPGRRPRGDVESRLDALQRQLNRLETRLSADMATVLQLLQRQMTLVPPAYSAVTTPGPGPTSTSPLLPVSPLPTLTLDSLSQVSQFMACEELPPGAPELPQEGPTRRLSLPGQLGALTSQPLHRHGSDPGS

SMILES	hERG current change (%, negative = inhibition) at 1uM [%]
Cc1ccc(NC(=O)c2c3c(nc4ccccc24)CCC3)cc1	7.04
CC(C)(C)c1nc(SCC(=O)NCc2ccco2)c2ccccc2n1	9.84
Cc1ccc(C)c(NC(=S)N(CCc2nc3cc(C)c(C)cc3[nH]2)Cc2cccnc2)c1	20.1
Cc1ccc(C)c(N(CC(=O)NC(C)(C)C)C(=O)CNC(=O)c2cccs2)c1	13
Cc1cc(NC(=O)COc2ccccc2C)ccc1NC(=O)c1cccs1	9.14
COc1ccc(S(=O)(=O)N2CCOCC2)cc1NC(=O)Cc1c(Cl)cccc1Cl	10.2
O=C(Cc1ccc(F)cc1)N/N=C/c1ccccn1	10.8
c1ccc2[nH]c(NN=C3CCCCCC3)nc2c1	9.84
COc1ccc(NC(=O)NNC(=O)c2ccc(-c3ccccc3)cc2)c(OC)c1	-11.1
CC(C)(C)NC(=O)COC(=O)c1cc(Br)ccc1Cl	-4.39
CCC1CCCCN1Cc1ccc(OC)c(OC)c1 (stereo not shown)	-0.574
Cc1ccc(-c2csc(NC(=O)CSc3nc4ccccc4c(=O)n3CCCN(C)C)n2)cc1	2.76
CCN(CC)C(=O)CSc1nnc(-c2ccccn2)n1-c1ccccc1OC	18.4
N#Cc1cc(N)ccc1Sc1ccccc1	14.9
CC(C)c1c(C(=O)N/N=C/c2ccc(Cl)cc2Cl)nnn1-c1nonc1N	25.2
CCN(CC)c1ncnc2sc(C(=O)N3CCN(c4ccc(OC)cc4)CC3)c(C)c12	-12.1
O=C(NC(Cc1ccccc1)C(=O)O)NC12CC3CC(CC(C3)C1)C2 (stereo not shown)	13.1
CC(C)OCCCNC(=O)c1cn(C)c2ccc(S(=O)(=O)N(C)C3CCCCC3)cc2c1=O	11.6
Cc1cc(OC(=O)N2CCCCC2)cc(C)c1Cl	3.32
O=[N+]([O-])c1cc(S(=O)(=O)C(F)(F)F)ccc1Sc1nc2ccccc2s1	15.3
CCC1CCCCN1C(=O)c1ccc(OC2CCN(C(=O)C3CC3)CC2)cc1 (stereo not shown)	15.5
COc1cc(C(=O)Nc2nc3ccccc3[nH]2)cc(OC)c1OC	-15.9

SMILES	hERG current change (%, negative = inhibition) at 1uM [%]
CCc1cccc(C)c1NC(=O)C1CCN(c2nn3c(=O)cc(C)nc3s2)CC1	13
NS(=O)(=O)c1ccc(CCNC(=O)C2CCC(Cn3c(=S)[nH]c4ccccc4c3=O)CC2)cc1 (stereo not shown)	10.6
COc1cc(CC(=O)OCC(=O)Nc2cccc([N+](=O)[O-])c2)cc(OC)c1OC	-5.33
COc1ccccc1N1CCN(C(=O)c2cc(C)on2)CC1	8.12
COC(CNc1ccc([N+](=O)[O-])c(NCC(OC)OC)c1C#N)OC	13.5
OCC12CO[C@@H]3c4ccccc4[C@H](OC1)N32 (stereo partly shown)	15.3
CCC(C(=O)NCCCN1CCN(CCCNC(=O)C(CC)c2ccccc2)CC1)c1ccccc1 (stereo not shown)	21.7
Cc1ccc(SCC(=O)N(C)CC(=O)Nc2cccc(F)c2)cc1	-1.61
COc1ccccc1NS(=O)(=O)c1cc(C(=O)NCc2ccco2)ccc1C	-4.38
Cc1c(C(=O)N2CCN(S(=O)(=O)c3cc(F)ccc3F)CC2)oc2ccccc12	8.26
CCCNC(=O)c1ccc(COc2ccc(Cl)cc2)o1	-1.1
Cc1cc(NS(=O)(=O)c2ccc(NC(=O)CSc3nc4sc(C(=O)O)c(C)c4c(=O)[nH]3)cc2)no1	17.2
Cc1cccc(OC(C)C(=O)N2CCCN(C)CC2)c1C (stereo not shown)	6.41
Cc1ccc(CCSc2ccc(C(C)C)cc2)cn1	-3.25
CN(CC(=O)Nc1ccc(F)cc1)C(=O)COC(=O)c1ccc(=O)n(Cc2ccccc2)n1	1.39
O=C(COC(=O)CCc1nc2ccccc2n1-c1ccccc1)Nc1cccc(Cl)c1	6.11
CCCCCCCCS(=O)C1CCS(=O)(=O)C1 (stereo not shown)	6.95
O=C(CC1Sc2ccccc2NC1=O)c1ccc(Br)cc1 (stereo not shown)	18
Cc1noc(C)c1C(=O)NCc1cccs1	9.84
Cc1c(/C=N/NC(=O)c2ccccc2O)c2ccccn2c1C(=O)c1ccc(F)cc1	6.6
Cc1ccc(Nc2nc(N)nc(CSC(=S)N3CCN(c4ccccc4)CC3)n2)cc1	13.4
CC(=O)Nc1cc(C(=O)NCc2ccco2)ccc1Sc1ccc(F)cc1	1.14

SMILES	hERG current change (%, negative = inhibition) at 1uM [%]
C(CNC1C2CC3CC(C2)CC1C3)CN1CCOCC1.Cl (stereo not shown)	4.52
Cc1cc(C(=O)NCC(=O)OCC(=O)N(C(C)C)C(C)C)ccc1[N+](=O)[O-]	5.73
Cc1[nH]c(=O)[nH]c(=O)c1S(=O)(=O)Nc1ccc(F)c(Cl)c1	15.8
Nc1[nH]c(=O)[nH]c(=O)c1N=Nc1ccccc1Cl	20.2
O=C(O)c1ccc(NS(=O)(=O)c2ccc3c(c2)C(=O)c2cc(S(=O)(=O)Nc4ccc(C(=O)O)cc4)ccc2-3)cc1	7.79
CCCc1nc(N)c(C#N)c(-c2cccnc2)c1CC	-1.45
Cc1cccc(C(=O)Nc2ccc(C(=O)/C=C/c3ccncc3)cc2)c1	9.29
CNC(=O)C(=O)N/N=C/c1ccc(Br)cc1	11.4
COC(=O)c1cnc(NNS(=O)(=O)c2ccc(C(F)(F)F)cc2)nc1C(F)(F)F	10.7
CCCOc1ccc(/C=N/NC(=O)CN2CCCCC2)cc1	-9.28
Oc1ccc(/C=N/Nc2cc(N3CCOCC3)nc(N3CCOCC3)n2)cc1	5.21
Cc1cc(N2C(=O)C(O)=C(C(=O)c3cc4ccccc4o3)C2c2ccc(OC(C)C)cc2)no1 (stereo not shown)	6.85
CCc1ccc(C2CC(=O)N(c3cccc(F)c3)C3=C2C(=O)OC3)cc1 (stereo not shown)	-19.1
O=C(COc1cc2oc(=O)c3c(c2cc1Cl)CCCC3)NCc1cccnc1	-2.19
COC(=O)c1ccccc1NC(=O)N1C[C@@H]2C[C@@H](C1)c1cccc(=O)n1C2	-9.45
CCc1ccc(NC(=O)C(=O)NCC2CCCO2)cc1 (stereo not shown)	6.95
Cc1ccc(N/N=C2\CCS(=O)(=O)c3sccc32)cc1	14.2
COC(=O)CC(c1ccc(OC)c(OC)c1)c1ccc(OC)c(OC)c1	6.11
Cc1ccc(-c2nn(-c3ccccc3)cc2CC(=S)N2CCOCC2)cc1	15.9
COCCCNc1oc(-c2ccccc2OC)nc1C#N	-13.1
O=C(c1cc(N2C(=O)C3C4CCC(C4)C3C2=O)ccc1Cl)N1CCN(c2ccc(F)cc2)CC1 (stereo not shown)	-19
Cc1c(-c2cccs2)[n+](=O)c2c(n1[O-])CCC2	3.42

SMILES	hERG current change (%, negative = inhibition) at 1uM [%]
COc1ccc(-c2nc(-c3ccncc3)no2)c(OC)c1	13.8
Cc1ccc(CN2CCCNC2=O)cc1	-8.67
COc1ccc(C2N(c3ccc(OC)cc3)C(=S)N3CCCN23)cc1 (stereo not shown)	6.39
CCc1cc(=O)n2[nH]c(C)c(-c3ccccc3OC)c2n1	6.99
CC(=O)c1cc(C(=O)N2CCc3c([nH]c4ccccc34)C2C2CCCCC2)[nH]n1 (stereo not shown)	14.9
CCn1cc(C(=O)OCC(=O)Nc2cccc(Cl)c2Cl)c(=O)c2ccc(C)nc21	13.7
COc1cccc(N(CC(=O)N/N=C(\C)c2cccs2)S(C)(=O)=O)c1	5.26
COc1ccccc1NC(=O)CSCC(=O)N1c2ccccc2CCc2ccccc21	-0.734
CCN(CCCNC(=O)C1CCN(S(=O)(=O)CC)CC1)c1ccccc1	-2.26
Cc1cccc(CCNC(=O)C2CCC(CNc3c(N4CCCC4)c(=O)c3=O)CC2)c1 (stereo not shown)	7.13
Cc1nc(Nc2cccc(O)c2)c2oc3ccccc3c2n1	11.8
CC(=O)Nc1c2c(nn1-c1ccccc1C)CS(=O)(=O)C2	15
Cc1cccc(OCCc2nnc(N)s2)c1C	12.1
O=C(Nc1ccc(F)cc1)N1CCC(c2nc3c(nnn3Cc3ccccc3Cl)c(=O)[nH]2)CC1	11.6
C=CCN(CC(=O)NC1CCCC1)C(=O)C(=O)Nc1ccc2c(c1)OCCO2	19.6
O=C(Nc1cc(C(F)(F)F)ccc1N1CCOCC1)c1ccccc1	14
O=C(NCc1nc(-c2ccccc2)cs1)c1ccccc1	5.98
CCSc1nnc(NC(=O)CSc2nc3c(cc2C#N)CCCC3)s1	10.8
Cc1ccc(/C=N/n2c(=O)c(C(C)(C)C)nn3cnnc23)cc1	4.19
CC(C)(C)NC(=O)CN(CCN1CCOCC1)C(=O)CNS(=O)(=O)c1ccc(Cl)cc1	19.7
O=C(NCc1ccccc1)C(=O)NCC(c1ccco1)N1CCOCC1 (stereo not shown)	3.72
CC1CCCN(C(=O)c2ccc(S(=O)(=O)Nc3ccccc3Cl)cc2)C1 (stereo not shown)	12.6

From article PMC4336329 (PLoS ONE, 2015)
